The other results are listed elsewhere or left out.
B1: PhoQ; a variant is named by its letters at X, in order, P23837 (parent)
chain: MKKLLRLFFPLSLRVRFLLATAAVVLVLSLAYGMVALIGYSVSFDKTTFRLLRGESNLFYTLAKWENNKLHVELPENIDKQSPTMTLIYDENGQLLWAQRDVPWLMKMIQPDWLKSNGFHEIEADVNDTSLLLSGDHSIQQQLQEVREDDDDAEMTHSVAVNVYPATSRMPKLTIVVVDTIPVELKSSYMVWSWFIYVLSANLLLVIPLLWVAAWWSLRPIEALAKEVRELEEHNRELLNPATTRELTSLVRNLNRLLKSERERYDKYRTTLTDLTHSLKTPLXXLQXXLRSLRSEKMSVSDAEPVMLEQISRISQQIGYYLHRASMRGGTLLSRELHPVAPLLDNLTSALNKVYQRKGVNISLDISPEISFVGEQNDFVEVMGNVLDNACKYCLEFVEISARQTDEHLYIVVEDDGPGIPLSKREVIFDRGQRVDTLRPGQGVGLAVAREITEQYEGKIVAGESMLGGARMEVIFGRQHSAPKDE

Variants of: B1
Assay: enrichment ratio after two sorts for PhoP signalling (ratio (wild type AVST 3.29)); higher = more functional
Conditions: with PhoP (E. coli)

Point of comparison: VNTM, enrichment ratio 3.43. Against it:
- MFPM — lower, ≤ 0.25
- YIQG — lower, ≤ 0.25
- HKSA — lower, ≤ 0.25
- EEFL — lower, ≤ 0.25
- REAR — lower, ≤ 0.25
- RESC — lower, ≤ 0.25
- HSQD — lower, ≤ 0.25
- HWRW — lower, ≤ 0.25
- AVTT — lower, ≤ 0.25
- TKQE — higher, 16.5
- DHWF — lower, ≤ 0.25
- SRHE — lower, ≤ 0.25
- PDGP — lower, ≤ 0.25
- WRWS — lower, ≤ 0.25
- FFEK — lower, ≤ 0.25
- VQES — lower, ≤ 0.25
- FQWM — lower, ≤ 0.25
- NPKE — lower, ≤ 0.25
- TMEY — lower, ≤ 0.25
- QGVW — lower, ≤ 0.25
- FHFM — lower, ≤ 0.25
- LSPI — lower, ≤ 0.25
- GWHD — lower, ≤ 0.25
- HHRS — lower, ≤ 0.25
- WLKL — lower, ≤ 0.25
- NDYW — lower, ≤ 0.25
- QRYD — lower, ≤ 0.25
- SCIT — lower, 1.21
- MCNK — lower, ≤ 0.25
- IFYV — lower, ≤ 0.25
- EPIR — lower, ≤ 0.25
- EICF — lower, ≤ 0.25
- FLCL — lower, 2.02
- FYSE — lower, 1.54
- WGHQ — lower, ≤ 0.25
- DMWS — lower, ≤ 0.25
- FKNV — lower, ≤ 0.25
- KMAQ — lower, ≤ 0.25
- WDLY — lower, ≤ 0.25
- LAHH — lower, ≤ 0.25
- FGHL — lower, ≤ 0.25
- DRAK — lower, ≤ 0.25
- QHSV — lower, ≤ 0.25
- RVDT — lower, ≤ 0.25
- GFDF — lower, ≤ 0.25
- GNRK — lower, ≤ 0.25
- IVMW — lower, ≤ 0.25
- KAIQ — lower, ≤ 0.25
- NYMK — lower, ≤ 0.25
- VPGA — lower, ≤ 0.25
- QTNK — lower, ≤ 0.25
- NRNH — lower, ≤ 0.25
- ILIE — lower, ≤ 0.25
- VPIQ — lower, ≤ 0.25
- HRWE — lower, ≤ 0.25
- AERM — lower, ≤ 0.25
- HFMF — lower, ≤ 0.25
- PIAM — lower, ≤ 0.25
- RPRQ — lower, ≤ 0.25
- TNEA — lower, ≤ 0.25
- HWAG — lower, ≤ 0.25
- YRAS — lower, ≤ 0.25
- GWSE — lower, ≤ 0.25
- GGGH — lower, ≤ 0.25
- WNPC — lower, ≤ 0.25
- DNCV — lower, ≤ 0.25
- LSCI — lower, 0.282
- DFCN — lower, ≤ 0.25
- FKSV — lower, ≤ 0.25
- NNYQ — lower, ≤ 0.25
- LDHK — lower, ≤ 0.25
- LATM — lower, ≤ 0.25
- PESY — lower, ≤ 0.25
- SRAS — lower, ≤ 0.25
- NDTL — lower, ≤ 0.25
- HWGI — lower, ≤ 0.25
- RRDR — lower, ≤ 0.25
- YAGD — lower, ≤ 0.25
- TKLP — lower, 0.369
- SSYG — lower, ≤ 0.25
- DTDG — lower, ≤ 0.25
- NPQC — lower, ≤ 0.25
- HQPN — lower, ≤ 0.25
- QQIR — lower, ≤ 0.25
- MVIQ — lower, ≤ 0.25
- PEKL — lower, ≤ 0.25
- EDFF — lower, ≤ 0.25
- TFAP — lower, ≤ 0.25
- SVAR — higher, 6.23
- LLPK — lower, ≤ 0.25
- PFYN — lower, ≤ 0.25
- TQWR — lower, ≤ 0.25
- VGMC — lower, 1.02
- TPFY — lower, ≤ 0.25
- TNGY — higher, 4.96
- FQSW — lower, 0.59
- FFEM — lower, ≤ 0.25
- VVWM — lower, ≤ 0.25
- EPQR — lower, ≤ 0.25
- QANR — lower, ≤ 0.25
- KAFG — lower, ≤ 0.25
- PPGL — lower, ≤ 0.25
- THIL — lower, ≤ 0.25
- SPTF — lower, ≤ 0.25
- MRYI — lower, ≤ 0.25
- AYPR — lower, ≤ 0.25
- PATA — lower, ≤ 0.25
- NLQM — lower, ≤ 0.25
- YVHG — lower, ≤ 0.25
- SNTL — higher, 14.6
- WHLK — lower, ≤ 0.25
- DQDT — lower, ≤ 0.25
- MQPH — lower, ≤ 0.25
- PGWQ — lower, ≤ 0.25
- WPPV — lower, ≤ 0.25
- LRYR — lower, ≤ 0.25
- ETDR — lower, ≤ 0.25
- WTRY — lower, ≤ 0.25
- IHYN — lower, ≤ 0.25
- YDDR — lower, ≤ 0.25
- LIEP — lower, ≤ 0.25
- WWTL — lower, ≤ 0.25
- HRPK — lower, ≤ 0.25
- IVNR — lower, ≤ 0.25
- KSKD — lower, ≤ 0.25
- NRCK — lower, ≤ 0.25
- HSPP — lower, ≤ 0.25
- KNGL — lower, ≤ 0.25
- FCCW — lower, ≤ 0.25
- RPTR — lower, ≤ 0.25
- YEKY — lower, ≤ 0.25
- TSDE — lower, ≤ 0.25
- EGMY — lower, ≤ 0.25
- NSGE — lower, ≤ 0.25
- RVKH — lower, ≤ 0.25
- TEEQ — lower, ≤ 0.25
- WCIF — lower, ≤ 0.25
- EFQS — lower, ≤ 0.25
- SMTW — lower, ≤ 0.25
- QFWF — lower, ≤ 0.25
- DVNG — lower, ≤ 0.25
- WWKN — lower, ≤ 0.25
- SDSV — higher, 5.55
- MLPQ — lower, ≤ 0.25
- GSML — higher, 9.91
- FFHS — lower, ≤ 0.25
- VGEP — lower, ≤ 0.25
- HMMA — lower, ≤ 0.25
- FQEL — lower, ≤ 0.25
- HIYW — lower, ≤ 0.25
- QKCK — lower, ≤ 0.25
- SYEC — lower, ≤ 0.25
- GTIR — lower, ≤ 0.25
- GWYV — lower, ≤ 0.25
- FSMC — higher, 16.1
- MDHF — lower, ≤ 0.25
- WIEP — lower, ≤ 0.25
- VTVG — lower, ≤ 0.25
- PWWM — lower, ≤ 0.25
- PHNY — lower, ≤ 0.25
- SECK — lower, ≤ 0.25
- MCTE — lower, ≤ 0.25
- RRSG — lower, ≤ 0.25
- MRNQ — lower, ≤ 0.25
- RIHK — lower, ≤ 0.25
- TFVG — lower, ≤ 0.25
- SIDD — lower, ≤ 0.25
- RLWF — lower, ≤ 0.25
- WKAA — lower, ≤ 0.25
- MPSV — lower, ≤ 0.25
- QDTS — lower, ≤ 0.25
- PGMM — lower, ≤ 0.25
- QVIL — lower, ≤ 0.25
- VGPH — lower, ≤ 0.25
- RAKY — lower, ≤ 0.25
- NRDI — lower, ≤ 0.25
- MNMI — higher, 4
- DKDD — lower, ≤ 0.25
- AKIS — lower, 2.92
- EEVC — lower, ≤ 0.25
- MAQW — lower, ≤ 0.25
- RVKK — lower, ≤ 0.25
- GFFC — lower, ≤ 0.25
- QQRA — lower, ≤ 0.25
- SKVS — higher, 5.06
- SPGA — lower, ≤ 0.25
- CNLF — lower, ≤ 0.25
- EFVA — lower, ≤ 0.25
- RPDP — lower, ≤ 0.25
- HEKY — lower, ≤ 0.25
- FPRD — lower, ≤ 0.25
- SQIK — lower, ≤ 0.25
- KAWI — lower, ≤ 0.25
- MNSM — higher, 9.22

Source: a collection of fitness landscapes (doi:10.1126/science.1257360)
